Measured values from publication PMC9765665.
These are yes or no findings as the source states them, for the method shown. In cells and extracts the contact can be indirect. Some results given as binding are weak or reduced against the parent protein; the word gives no strength.

Protein sequences, listed by entry. Tags and fused reporters are not part of them.
UniProt P03129: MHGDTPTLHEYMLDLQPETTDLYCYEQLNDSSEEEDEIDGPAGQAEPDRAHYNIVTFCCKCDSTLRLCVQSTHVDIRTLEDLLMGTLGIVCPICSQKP
UniProt P06788: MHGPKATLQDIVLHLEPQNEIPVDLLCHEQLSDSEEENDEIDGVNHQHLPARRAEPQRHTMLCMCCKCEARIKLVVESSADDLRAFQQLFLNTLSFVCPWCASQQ
UniProt Q7Z7L7: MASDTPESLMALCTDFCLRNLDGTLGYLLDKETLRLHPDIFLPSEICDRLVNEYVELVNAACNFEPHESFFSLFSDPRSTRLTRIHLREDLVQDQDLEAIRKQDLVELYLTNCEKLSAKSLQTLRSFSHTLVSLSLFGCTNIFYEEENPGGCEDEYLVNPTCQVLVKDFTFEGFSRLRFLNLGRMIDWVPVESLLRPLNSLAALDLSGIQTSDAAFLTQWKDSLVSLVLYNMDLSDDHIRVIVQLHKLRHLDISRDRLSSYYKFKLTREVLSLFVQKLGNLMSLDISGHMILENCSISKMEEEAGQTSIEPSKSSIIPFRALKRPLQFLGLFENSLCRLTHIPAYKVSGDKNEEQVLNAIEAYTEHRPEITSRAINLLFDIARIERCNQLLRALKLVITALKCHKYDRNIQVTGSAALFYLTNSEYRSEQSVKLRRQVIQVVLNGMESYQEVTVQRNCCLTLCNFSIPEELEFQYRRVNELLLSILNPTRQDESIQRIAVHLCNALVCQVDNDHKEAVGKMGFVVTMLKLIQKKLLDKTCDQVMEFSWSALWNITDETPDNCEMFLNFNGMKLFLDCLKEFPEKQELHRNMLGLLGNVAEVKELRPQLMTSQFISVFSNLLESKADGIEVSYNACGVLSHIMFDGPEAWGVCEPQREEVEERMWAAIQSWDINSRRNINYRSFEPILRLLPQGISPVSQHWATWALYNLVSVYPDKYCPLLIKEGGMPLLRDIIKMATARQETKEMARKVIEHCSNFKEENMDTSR
UniProt Q5T4S7: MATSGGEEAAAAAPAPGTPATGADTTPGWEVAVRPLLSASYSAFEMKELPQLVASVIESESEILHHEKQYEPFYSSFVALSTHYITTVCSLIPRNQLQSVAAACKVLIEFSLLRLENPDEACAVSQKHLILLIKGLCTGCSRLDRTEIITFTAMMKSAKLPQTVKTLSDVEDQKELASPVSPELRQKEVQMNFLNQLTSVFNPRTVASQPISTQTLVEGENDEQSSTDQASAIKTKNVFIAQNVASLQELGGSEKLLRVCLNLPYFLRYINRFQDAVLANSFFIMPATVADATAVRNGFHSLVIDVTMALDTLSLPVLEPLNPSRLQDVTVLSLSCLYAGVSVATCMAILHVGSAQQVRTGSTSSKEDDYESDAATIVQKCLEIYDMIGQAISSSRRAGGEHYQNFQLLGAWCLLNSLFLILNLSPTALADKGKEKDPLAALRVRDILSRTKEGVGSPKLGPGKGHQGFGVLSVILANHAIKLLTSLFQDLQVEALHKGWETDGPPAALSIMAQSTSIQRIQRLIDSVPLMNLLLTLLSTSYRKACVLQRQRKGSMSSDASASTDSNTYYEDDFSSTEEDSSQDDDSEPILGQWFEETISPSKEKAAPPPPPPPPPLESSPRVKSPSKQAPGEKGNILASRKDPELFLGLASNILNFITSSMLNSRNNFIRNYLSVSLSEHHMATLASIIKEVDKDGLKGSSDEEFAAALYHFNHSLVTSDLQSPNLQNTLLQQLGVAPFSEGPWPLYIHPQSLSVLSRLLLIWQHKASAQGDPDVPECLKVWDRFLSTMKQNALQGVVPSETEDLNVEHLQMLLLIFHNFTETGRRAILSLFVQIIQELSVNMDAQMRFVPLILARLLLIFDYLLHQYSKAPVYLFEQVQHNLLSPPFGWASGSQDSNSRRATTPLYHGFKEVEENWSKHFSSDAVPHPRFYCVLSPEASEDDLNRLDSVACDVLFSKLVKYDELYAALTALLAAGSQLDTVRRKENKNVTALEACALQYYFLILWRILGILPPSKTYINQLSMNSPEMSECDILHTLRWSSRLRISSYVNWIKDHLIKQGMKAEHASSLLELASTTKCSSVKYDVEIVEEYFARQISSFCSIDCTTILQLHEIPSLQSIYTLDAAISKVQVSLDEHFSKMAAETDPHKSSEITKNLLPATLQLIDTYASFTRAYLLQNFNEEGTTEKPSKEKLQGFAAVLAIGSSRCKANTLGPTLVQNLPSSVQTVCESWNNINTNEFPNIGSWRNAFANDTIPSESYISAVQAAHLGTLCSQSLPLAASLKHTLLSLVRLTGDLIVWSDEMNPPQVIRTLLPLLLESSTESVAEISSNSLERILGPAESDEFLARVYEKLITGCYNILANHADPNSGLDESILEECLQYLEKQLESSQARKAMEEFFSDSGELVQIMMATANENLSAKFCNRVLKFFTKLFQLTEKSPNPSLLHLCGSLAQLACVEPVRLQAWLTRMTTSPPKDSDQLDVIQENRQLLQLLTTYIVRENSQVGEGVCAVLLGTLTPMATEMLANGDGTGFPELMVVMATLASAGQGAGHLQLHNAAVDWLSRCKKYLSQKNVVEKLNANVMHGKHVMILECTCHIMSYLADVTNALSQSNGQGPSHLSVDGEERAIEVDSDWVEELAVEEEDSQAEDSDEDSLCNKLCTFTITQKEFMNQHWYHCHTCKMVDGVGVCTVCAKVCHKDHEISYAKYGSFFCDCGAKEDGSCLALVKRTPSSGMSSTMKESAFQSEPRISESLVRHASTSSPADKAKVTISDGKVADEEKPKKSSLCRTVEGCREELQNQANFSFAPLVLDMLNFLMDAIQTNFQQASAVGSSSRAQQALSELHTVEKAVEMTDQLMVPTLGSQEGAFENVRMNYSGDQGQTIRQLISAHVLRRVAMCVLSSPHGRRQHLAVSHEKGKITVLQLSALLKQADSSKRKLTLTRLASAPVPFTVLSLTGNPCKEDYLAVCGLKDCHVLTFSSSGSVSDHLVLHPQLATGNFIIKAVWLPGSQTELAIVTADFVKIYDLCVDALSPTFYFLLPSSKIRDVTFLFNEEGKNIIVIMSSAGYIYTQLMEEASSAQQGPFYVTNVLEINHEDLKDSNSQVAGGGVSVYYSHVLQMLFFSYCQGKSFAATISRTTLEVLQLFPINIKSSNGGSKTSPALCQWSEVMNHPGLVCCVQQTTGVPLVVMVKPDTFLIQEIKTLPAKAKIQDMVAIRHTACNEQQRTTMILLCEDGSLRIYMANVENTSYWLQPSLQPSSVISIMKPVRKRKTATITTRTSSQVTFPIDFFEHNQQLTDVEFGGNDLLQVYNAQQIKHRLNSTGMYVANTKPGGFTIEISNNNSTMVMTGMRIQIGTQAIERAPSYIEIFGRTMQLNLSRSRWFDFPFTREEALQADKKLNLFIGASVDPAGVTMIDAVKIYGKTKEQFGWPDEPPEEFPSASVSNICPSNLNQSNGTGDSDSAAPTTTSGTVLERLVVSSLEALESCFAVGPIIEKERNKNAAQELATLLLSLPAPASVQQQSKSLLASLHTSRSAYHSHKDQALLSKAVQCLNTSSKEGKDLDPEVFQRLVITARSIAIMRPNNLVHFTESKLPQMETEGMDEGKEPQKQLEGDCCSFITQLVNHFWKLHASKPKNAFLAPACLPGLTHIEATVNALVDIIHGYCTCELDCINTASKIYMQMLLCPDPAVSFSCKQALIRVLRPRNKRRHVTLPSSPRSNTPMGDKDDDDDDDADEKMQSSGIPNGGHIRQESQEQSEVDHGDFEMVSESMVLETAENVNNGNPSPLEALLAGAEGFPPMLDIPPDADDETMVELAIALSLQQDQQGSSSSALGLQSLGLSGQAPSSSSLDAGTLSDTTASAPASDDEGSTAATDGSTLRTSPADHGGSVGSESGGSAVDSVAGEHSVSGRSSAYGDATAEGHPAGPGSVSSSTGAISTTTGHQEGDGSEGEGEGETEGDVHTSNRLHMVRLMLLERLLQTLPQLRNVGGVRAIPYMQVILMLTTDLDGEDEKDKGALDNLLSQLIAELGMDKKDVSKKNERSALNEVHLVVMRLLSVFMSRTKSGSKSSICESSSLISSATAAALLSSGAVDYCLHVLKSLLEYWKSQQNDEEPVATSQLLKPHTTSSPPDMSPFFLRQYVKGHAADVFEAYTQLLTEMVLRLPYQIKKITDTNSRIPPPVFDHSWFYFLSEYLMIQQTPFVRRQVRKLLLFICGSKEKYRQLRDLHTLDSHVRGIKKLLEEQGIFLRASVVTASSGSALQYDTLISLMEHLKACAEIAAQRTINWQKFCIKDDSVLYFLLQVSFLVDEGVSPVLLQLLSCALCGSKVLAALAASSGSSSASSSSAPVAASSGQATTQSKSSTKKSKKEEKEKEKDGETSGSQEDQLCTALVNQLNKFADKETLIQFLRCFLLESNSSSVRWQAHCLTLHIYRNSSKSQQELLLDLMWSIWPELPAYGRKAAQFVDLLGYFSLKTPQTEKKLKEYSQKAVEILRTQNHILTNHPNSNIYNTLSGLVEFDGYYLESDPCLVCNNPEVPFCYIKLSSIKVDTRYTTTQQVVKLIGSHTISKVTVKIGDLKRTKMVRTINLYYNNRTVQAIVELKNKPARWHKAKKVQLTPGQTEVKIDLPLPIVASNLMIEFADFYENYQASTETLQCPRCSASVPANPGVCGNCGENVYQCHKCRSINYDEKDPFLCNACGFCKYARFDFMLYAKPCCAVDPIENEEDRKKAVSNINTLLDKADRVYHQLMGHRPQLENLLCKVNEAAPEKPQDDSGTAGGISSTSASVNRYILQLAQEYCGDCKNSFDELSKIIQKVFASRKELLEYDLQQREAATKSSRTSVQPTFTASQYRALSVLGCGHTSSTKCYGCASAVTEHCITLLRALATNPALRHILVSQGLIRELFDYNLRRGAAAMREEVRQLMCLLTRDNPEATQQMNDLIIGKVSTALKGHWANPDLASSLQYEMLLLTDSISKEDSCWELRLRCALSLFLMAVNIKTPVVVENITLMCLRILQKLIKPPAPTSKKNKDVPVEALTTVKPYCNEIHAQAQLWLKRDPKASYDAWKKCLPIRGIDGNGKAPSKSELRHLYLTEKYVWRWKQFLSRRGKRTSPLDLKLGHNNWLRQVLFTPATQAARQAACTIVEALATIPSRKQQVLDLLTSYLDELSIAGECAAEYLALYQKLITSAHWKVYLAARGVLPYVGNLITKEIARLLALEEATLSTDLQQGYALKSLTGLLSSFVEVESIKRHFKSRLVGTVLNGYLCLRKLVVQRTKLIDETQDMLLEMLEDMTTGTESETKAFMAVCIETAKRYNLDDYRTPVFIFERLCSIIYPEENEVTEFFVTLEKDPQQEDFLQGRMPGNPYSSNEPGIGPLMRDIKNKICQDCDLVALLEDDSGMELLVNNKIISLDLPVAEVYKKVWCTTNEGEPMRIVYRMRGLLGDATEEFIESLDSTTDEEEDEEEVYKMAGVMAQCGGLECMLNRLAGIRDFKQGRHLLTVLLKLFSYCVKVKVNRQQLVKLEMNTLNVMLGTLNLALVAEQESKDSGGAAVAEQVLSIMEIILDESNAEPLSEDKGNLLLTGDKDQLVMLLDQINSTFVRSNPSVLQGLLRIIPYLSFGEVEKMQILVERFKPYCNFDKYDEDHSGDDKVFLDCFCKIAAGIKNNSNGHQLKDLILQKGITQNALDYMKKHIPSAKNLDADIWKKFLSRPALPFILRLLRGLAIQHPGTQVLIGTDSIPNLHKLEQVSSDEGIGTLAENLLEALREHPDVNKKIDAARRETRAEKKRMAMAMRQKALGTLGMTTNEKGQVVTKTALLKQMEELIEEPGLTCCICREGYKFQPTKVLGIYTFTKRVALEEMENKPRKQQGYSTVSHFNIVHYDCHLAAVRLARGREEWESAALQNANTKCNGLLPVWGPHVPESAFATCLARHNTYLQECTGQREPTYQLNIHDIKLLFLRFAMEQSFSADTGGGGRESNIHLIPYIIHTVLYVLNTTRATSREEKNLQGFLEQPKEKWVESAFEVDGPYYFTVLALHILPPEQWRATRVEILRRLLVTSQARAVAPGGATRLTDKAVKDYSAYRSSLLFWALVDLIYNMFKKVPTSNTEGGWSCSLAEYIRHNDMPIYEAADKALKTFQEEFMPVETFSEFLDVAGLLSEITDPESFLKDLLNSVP

Tests used:
[1] = molecular target: wild-type HPV16 E7-Flag-HA (HPV16) (UniProt P03129); assay: co-IP; anti-HA or control IgG immunoprecipitation from lysates of SiHa, Caski, HeLa and C33A cells stably expressing HPV16 E7-Flag-HA, Western blot for ZER1
[2] = molecular target: wild-type HPV18 E7-Flag-HA (HPV18) (UniProt P06788); assay: co-IP; anti-HA agarose immunoprecipitation of tagged E7 from lysates of stable N/Tert-1 keratinocytes, Western blot of endogenous partners
[3] = molecular target: wild-type HPV16 E7-Flag-HA (HPV16) (UniProt P03129); assay: as above
[4] = molecular target: wild-type HPV16 E7-Flag-HA (HPV16) (UniProt P03129); assay: SEC + co-IP; N/Tert-1 HPV16 E7-Flag-HA lysate (50 mM Tris pH 7.8, 150 mM NaCl, 0.5% NP-40) fractionated on Superose 6 10/300 GL; even-numbered 500-uL fractions subjected to anti-HA immunoprecipitation and Western blot
[5] = molecular target: wild-type HPV16 E7-Flag-HA (HPV16) (UniProt P03129); assay: co-IP; anti-HA agarose immunoprecipitation of tagged E7 from lysates of stable N/Tert-1 keratinocytes, Western blot of endogenous partners; remark: listed apart in the source

Molecule	binding [1]	binding [2]	binding [3]	binding [4]	binding [5]
ZER1 (from UniProt Q7Z7L7 1-766)	binds	no binding	binds	binds	
ubiquitin ligase UBR4 (from UniProt Q5T4S7 1-5183)				binds	
retinoblastoma tumor suppressor (RB1) (protein, UniProt P06400 1-928) MPPKTPRKTAATAAAAAAEPPAPPPPPPPEEDPEQDSGPEDLPLVRLEFEETEEPDFTALCQKLKIPDHVRERAWLTWEKVSSVDGVLGGYIQKKKELWGICIFIAAVDLDEMSFTFTELQKNIEISVHKFFNLLKEIDTSTKVDNAMSRLLKKYDVLFALFSKLERTCELIYLTQPSSSISTEINSALVLKVSWITFLLAKGEVLQMEDDLVISFQLMLCVLDYFIKLSPPMLLKEPYKTAVIPINGSPRTPRRGQNRSARIAKQLENDTRIIEVLCKEHECNIDEVKNVYFKNFIPFMNSLGLVTSNGLPEVENLSKRYEEIYLKNKDLDARLFLDHDKTLQTDSIDSFETQRTPRKSNLDEEVNVIPPHTPVRTVMNTIQQLMMILNSASDQPSENLISYFNNCTVNPKESILKRVKDIGYIFKEKFAKAVGQGCVEIGSQRYKLGVRLYYRVMESMLKSEEERLSIQNFSKLLNDNIFHMSLLACALEVVMATYSRSTSQNLDSGTDLSFPWILNVLNLKAFDFYKVIESFIKAEGNLTREMIKHLERCEHRIMESLAWLSDSPLFDLIKQSKDREGPTDHLESACPLNLPLQNNHTAADMYLSPVRSPKKKGSTTRVNSTANAETQATSAFQTQKPLKSTSLSLFYKKVYRLAYLRLNTLCERLLSEHPELEHIIWTLFQHTLQNEYELMRDRHLDQIMMCSMYGICKVKNIDLKFKIIVTAYKDLPHAVQETFKRVLIKEEEYDSIIVFYNSVFMQRLKTNILQYASTRPPTLSPIPHIPRSPYKFPSSPLRIPGGNIYISPLKSPYKISEGLPTPTKMTPRSRILVSIGESFGTSEKFQKINQMVCNSDRVLKRSAEGSNPPKPLKKLRFDIEGSDEADGSKHLPGESKFQQKLAEMTSTRTRMQKQKMNDSMDTSNKEEK				binds	binds
